The source gives no read counts; variants with many changes may rest on few reads.

B1: OR4K15 (parent)
chain: GUUAACGGUCAUAGGCCAUGGAAACUAGGAGCACCAUUUCGCUGCCAGUGAAGAAAUGAACAAAGAAAAUCUGGGCCAGGCAGGCAUCAAAAGAAAUAGUCUUGCGCUCAACCAGAAAGUCUGUAAUCAUUUUAAGGGUA

Variants of B1 are the subject of this series. As to the kind of experiment: self-cleavage, relative activity (ratio to wild type); higher = more cleavage; in vitro, sequencing; the parent is a self-cleaving ribozyme.
For GUUAACGGUCGUAGGCCAUGGAAGCUAGGAGCACCUUUUCGCUGCCAGUGGAGAAAUGAACAAGGAAAAUCUGGGCCAGGCAGGCAUCAAAAGAAAUAGUCUUGCGCUCAACCAGAAAGUCUGUAAUCAUUUUAAGGGUA [A11G A24G A36U A51G A64G], the self-cleavage amounted to 1.43.
In the case of GUUAACGGUCGUAGGCCAUGGAAACUGGGAGCACCAUUUCGCUGCCAGUGAAGAAAUGAACGAAGAGAAUCUGGGCCAGGCAGGCAUCUAAAGAAAUAGUCUUGCGCUCAACCAGAAAGUCUGUAAUCAUUUUAAGGGUA [A11G A27G A62G A67G A89U], the self-cleavage was found to be 0.71.
With GUUAACGGUCGUAGGCCAUGGAAACUAGGAGCACCCUUUCGCUGCCAGUGAAGAAAUGGACAAUGAAAAUCUGGGCCAGGCAGGCAUCAAAAGAAAUAGUCUUGCGCUCAACCAGAAAGUCUGUAAUCAUUUUAAGGGUA [A11G A36C A59G A64U], the self-cleavage was 1.31.
To GUUAACGGUCGUAGGCCAUGGAAGCUAGGUGCACCAUUUCGCUGCCAGUGAAGAAGUGAACAAGGAAAAUCUGGGCCAGGCAGGCAUCAAAAGAAAUGGUCUUGCGCUCGACCAGAAAGUCUGUAAUCAUUUUAAGGGUA [A11G A24G A30U A56G A64G A98G A110G] belongs 0.01; to GUUAACGGUCGUAGGCCAUGGAAACUAGGAGCACCAUUUCGCUGCCGGUGAAGAAAUGAACAAAGAAAAUCUGGGCCAGGCAGGCAUCAAAAGAAAUAGUCUUGCGCUCAACCAGAAAGUCUGUAAUUAUUUUAAGGGUA [A11G A47G C128U], 0.14.
In the case of GUUAACGGUCGUAGGCCAUGGAAACUAGGUGCACCAUUUCGCUGCCAGUGAAGAAAUGAACAAAGAAAAUCUGGGCCAGGCAGGCAUCAAAAGAAAUAGUCUUGCGCUCAACCAGAAAGUCUGUAAUCAUUCUAAGGGUA [A11G A30U U132C] it was 0.81; in that of GUUAACGGUCGUAGGCCAUGGAAACUAGGAGCACCAUUUCGCUGCCCGUGGAGAAAUGAACAAAGAAAAUCUGGGCCAGGCAGGCAUCAAAAGAAAUAGUCUUGCGCUCAACCAGAAAGUCUGUAAUCAUUUUAAGGGUA [A11G A47C A51G], 1.57; in that of GUUAACGGUCGUAGGCCAUGGAUACUAGGAGCACCAUUUCGCUGCCAGUGAGGAAAUGAACAGAGGAAAUCUGGGCCAGGCAGGCAUCAAAAGAAAUAGUCUUGCGCUCAACCUGAAAGUCUGUAAUCAUUUUAAGGGUA [A11G A23U A52G A63G A66G A114U], 0.08.
In the case of GUUAACGGUCGUAGGCCAUGGAAUCUAGGAGCACCAUUUCGCUGCCAGUGAAGAGAUGAACAAAGAAAAUCUGGGCCAGGCAGGCAUCAAAAGAAGUAUUCUUGCGCUCAACCAGAAAGUCUGUAAUCAUUUUAAGGGUA [A11G A24U A55G A96G G99U] it was 0.48.
Consider GUUAACGGUCGUAGGCCAUGGAAACUAGGAGCGCCAUUUCGCUGCCAGUGAAGAAAUGAACAAAGAGAAUCUGGGCCAGGCAGGCAUCAAAAGUAAUAGUCUUGCGCUCAACCAGAAAGUCUGUAAUCAUUUUAAGGGUA [A11G A33G A67G A94U], for which the self-cleavage came to 0.57.
In the case of GUUAACGGUCGUAGGCCAUGGAGACUAGGAGCACCAUUUCGCUGCCAGUGAAGAAAUGAACAAAGAAAAUCUGGGCCAGGCAGGCAUCAAAAGAAAUAGUCCUGCGCUCAACCAGAAAGUCUGUAAUCAUUUUAAGGGUA [A11G A23G U102C], the self-cleavage amounted to 1.07.
To GUUAACGGUCGUAGGCCAUGGAGACUAGGAGCACCAUCUCGCUGCCAGCGAAGAAAUGAACAAAGAAAAUCUGGGCCAGGCAGGCGUCAAAAGAAAUAGUCUUGCGCUCAACCAGAAAGUCUGUAAUCAUUUUAAGGGUA [A11G A23G U38C U49C A86G] belongs 0.72; to GUUAACGGUCGUAGGCCAUGGAGACUAGGAGCACCAUUUCGCUGCCAGUGAAGAAAUGAACAAAGAAAGUCUGGGCCAGGCAGGCAUCAAAAGAAAUAGUCUUGCGCUCAACCAGAAAGUCUGUAAUCAUUUUAAGGGUA [A11G A23G A69G], 1.43.
For GUUAACGGUCGUAGGCCAUGGAACCUAGGAGCACCAUUUCGCUGCCAGUGAAGAAAUGAACAAAGAAAAUCUGGGCCAGGCAGGCAUCAAAAGAAAUAGUCUUGCGCUCAACCAGAAAGUCUGUAACCAUUUUAAGGGUA [A11G A24C U127C], the self-cleavage worked out at 0.66.
To GUUAACGGUCGUAGGCCAUGGAGACUAGGAGCACUAUUUCGCUGCCAGUGAAGAAAUGGACAAAGAAAAUCUGGGCCAGGCAGGCAUCAAAAGAAAUAGUCUCGCGCUCAACCAGAAAGUCUGUAAUCAUUUUAAGGGUA [A11G A23G C35U A59G U103C] belongs 0.25; to GUUAACGGUCGUAGGCCAUGGAAACUAGGAGCGCCAUUUCGCUGCCAGUGAAGAAAUGAACAAAGAAAAUCUGGGCCAGGCGGGCAUCAAAAGAAAUAGUCUUGCGCUCGACCAGAAAGUCUGUAAUCAUUUUAAGGGUA [A11G A33G A82G A110G], 0.11.
As to GUUAACGGUCGUAGGCCAUGGAAACUAGGUGCACCAUUUCGCUGCCAGUGAAGAAAUGAACAAAGAAAAUCUGGGCCAGGCAGGCGUCAAAAGAAAUAGUCUUGCGCUCAUCCAGAAAGACUGUAAUCAUCUUAAGGGUA [A11G A30U A86G A111U U120A U131C], the self-cleavage turned out to be 0.03.
In the case of GUUAACGGUCGUAGGCCAUGGAAACUAGGAGCGCCAUUUCGCUGCCAGUGAAGAAAUGAACGAAGAAAAUCUGGGCCAGGCAGGCAUCAAAAGAAAUAGUCUUGCGCUCAACCAGGAAGUCUGUAAUCAUUUUAAGGGUA [A11G A33G A62G A116G] it was 0.32; in that of GUUAACGGUCGUAGGCCAUGGAAACUAGGAGCACCAUUUCGCUGCCAGUGGAGAAAUGAACAAUGAAAAUCCGGGCCAGGCAGGCAUCAAAAGAAAUAGUCUUGCGCUCAUCCAGAAAGUCUGUAAUCAUUUUAAGGGUA [A11G A51G A64U U72C A111U], 0.03.
Turning to GUUAACGGUCGUAGGCCAUGGAGACUAGGAGCACCAUUUCGCUGCCAGAGAAGAAAUGAACAAAGAAAAUCUGGGCCUGGCAGGCAUCAAAAGAAAUAGUCUUGCGCUCAACCAGAAAGUCUGUAAUCAUUUUAAGGGUA [A11G A23G U49A A78U], the self-cleavage was 0.3.

The record behind these values is the RNAGym collection of RNA variant scans (doi:10.7554/elife.90254).
